# Assay results reported in the supplement of paper PMC11417369.
# ± gives the standard deviation of the averaged measurements. Some of the results follow.
# Tested on: PfAP2-LT AP2 domain (GST-tagged)
# Experiment: gcPBM binding intensity (ln(normalized median fluorescence intensity)); higher = stronger DNA binding
# Summary of the method: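 After 1 h on an Agilent 4 × 180k array of primer-extended double-stranded 36-bp intergenic genomic probes and negative controls, bound GST-tagged P. falciparum DNA-binding domains were detected with Alexa488 anti-GST antibody and scanned at 488 nm. The domains had been expressed in E. coli, and binding took place in 1× PBS with 1% milk, 0.2 mg/ml BSA, 0.5% salmon testes DNA and 0.03% Triton X-100. Binding intensity is the highest Masliner-normalised natural-log median intensity across replicate spots of either probe orientation.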
row,Sequence,gcPBM binding intensity (ln)
1,TTTTTAAAAAAAAATAGAGAGTCAAAGTATGTGGCG [CACACA_negctrl_site194],8.46 ± 0.58
2,TTTCAAGGATTTAATTTATGGAAACCTTCTTCATTT [GTGCAC_negctrl_site504],8.34 ± 0.59
3,TAATTCAAACGTGTATGTATATTACTCGAAGAAATA [CACACA_negctrl_site1779],8.46 ± 0.36
4,CATATAAGACAAAAGGTGCAATTTTAATGCTTTTAT [GTGCAC_site9432],8.82 ± 0.44
5,AACCCTTTTGATTTTTCTTTTTTTTTTTTTTTAAAT [CACACA_negctrl_site1667],8.47 ± 0.6
6,AGAAGGATATTATGAAGTACACATATTGTATATGGT [XGTACX_site7503],8.9 ± 0.38
7,ACAGTTTGTCTGAGTAGTACATAAATACTTGAAAGG [XGTACX_site7792],8.79 ± 0.45
8,TAGTAAAATGGAACACGTACATATATCTATGTATAA [XGTACX_site6103],9 ± 0.37
9,AAAATCTAGGTATTTATACACACTAATATAATATAC [CACACA_site8108],8.78 ± 0.43
10,TATATATTTGTGAAAATATTAAAATAAATAAATAAA [CACACA_negctrl_site295],8.39 ± 0.44
11,AAGTTCAAAATAAATGGTACAGAAGTATATATATCA [XGTACX_site174],8.83 ± 0.51
12,TAAAAAAAGAGATATTGTACACAAAAAAATTTTACT [XGTACX_site1342],8.64 ± 0.44
13,TAGAAAAAAAAATACATACACACAATATATTTATTT [CACACA_site3123],8.82 ± 0.48
14,CTCAAATAACTTTTTACACACATTATTTGAAATAAG [CACACA_site6722],8.79 ± 0.38
15,ATATGAATGATCGTACGTACTTACATATTTATAAAG [XGTACX_site8041],8.78 ± 0.4
16,CAGAATACATACATTACACACAAATTTAAGTATATA [CACACA_site1781],9.08 ± 0.47
17,TCTTACACTAATAAATGTACATACAAAAAATCTATT [XGTACX_site1379],8.56 ± 0.38
18,AATTTGAATATTTGATGTACAAAGTTTTTTAATGTT [XGTACX_site3249],8.57 ± 0.52
19,TACCCACTAAAATACACACACACACCCACATATATA [CACACA_site6141],10 ± 0.42

row,Sequence,gcPBM binding intensity (ln)
1,GTACCAACAGCACTACTTCTCGCCATTTTCTTGTAG [XGTACX_negctrl_site97],8.97 ± 0.44
2,GAGAGGATAGTTCACAGTACCCAGTAACTCTACGGA [XGTACX_site4876],8.81 ± 0.54
3,ATAAATATAACATATTGTACCCTTAAAAAGGAACAA [XGTACX_site352],8.6 ± 0.4
4,AATACATGAACTTAAAGTACTAAAAAAAAAATAATA [XGTACX_site1956],8.76 ± 0.57
5,AGGAAAATAATTAAAGCATGCTCATTATGAAATATA [TGCATGCA_site855],8.73 ± 0.47
6,ACAAATAAAAAAATTACACACATATAAAATATAGAT [CACACA_site6756],9.06 ± 0.4
7,TATGAGAACAAACATTGTACAATAAAAAGTAGATAT [XGTACX_site920],9.13 ± 0.51
8,CATATAAGAATCTTCTGTACTTATAAGAAAAGACAT [XGTACX_site8135],8.62 ± 0.46
9,ATGTAATATGTTCATGCATGTAAAATTACATTTAGA [TGCATGCA_site852],8.78 ± 0.42
10,AAAAAAAAAAAAACAACACACAATGTTTTATTTTAC [CACACA_site1613],8.82 ± 0.41
11,TAAAACAAAATAACATGTACAAAAAAAAAAAAAAAA [XGTACX_site2915],8.56 ± 0.52
12,ATACACAAATGCATACGTACATATATATATATATAT [XGTACX_site3504],9.87 ± 0.16
13,TATATATATATATATGTGCACATTTATTGCCTTTGC,10.11 ± 0.071
14,TATAAATAAAGACTTTTTTCTAACTTTTTTTTGTAT [CACACA_negctrl_site1015],8.44 ± 0.55
15,TAAGTATATTTCTGCACACAAAAAAAAAAACCAAAA [CACACA_site4056],9.08 ± 0.41
16,AAAATTTAATATGAATGTACATAAAAAAAAAAAAAA [XGTACX_site6719],8.69 ± 0.38
17,ATATCTATAATAAACACACAAATAGATATAACATAT [CACACA_site7702],9.03 ± 0.4
18,AAAAAAAAATTAAAAACACACATATATATATATATA [CACACA_site1580],9.73 ± 0.014
19,AATGAAACAATACCCAGTAAAAAAAAAAAATAAATA [TGCATGCA_negctrl_site205],8.87 ± 0.55

row,Sequence,gcPBM binding intensity (ln)
1,ATATTTTTTTTCTTCACACACATGAGTTATAAATAA [CACACA_site7498],8.97 ± 0.51
2,TGTAATCTGGAGAAGAGTACACAGTATCTGGTAGCT [XGTACX_site4935],8.87 ± 0.37
3,ATATATAATATAATATGTACATATAATCAATCCTGT [XGTACX_site8694],8.97 ± 0.33
4,ATTTAGTATTCGAAACGTACACATATATATATATAT [XGTACX_site3910],9.59 ± 0.33
5,AAGGTAAAATATAAGTGTACTTTTTCTTAATCTTCG [XGTACX_site514],8.57 ± 0.57
6,TAATATTTATATAATTGTACTTTGTTTGTAAATCCA [XGTACX_site7292],8.53 ± 0.43
7,GGACGTATTAAAAGGCGTACACTAAATATTTTATGT [XGTACX_site146],8.87 ± 0.47
8,ATTATAATTTTGTAAAGTACATATTATTATATATTA [XGTACX_site7191],8.49 ± 0.46
9,AAGATAATTACGCACACACACACACGCCCACAACTA [CACACA_site7255],10.4 ± 0.12
10,TATTTATATAATCCTATAATATTACTACTATCTTTA [GTGCAC_negctrl_site342],8.68 ± 0.47
11,TGATAACTAAATACATGTACAAATTAAAAAGAAAAA [XGTACX_site3080],8.86 ± 0.38
12,TAATGATTATATGACTGTACATTTGTAGGTATAATT [XGTACX_site3373],8.77 ± 0.33
13,TTATTTTTTTCAACAAGTACTAATACAAAATAAAAC [XGTACX_site6460],8.32 ± 0.47
14,TTGTATTATTAAATTATAAAACCTATAATTATGGAT [GTGCAC_negctrl_site340],8.35 ± 0.45
15,GATTAAATCGATAATACACACTAAATGTAAAACATT [CACACA_site4248],8.95 ± 0.45
16,TTTAATTAATAATAATATAAATTGTTCTTTTTTTTT [GTGCAC_negctrl_site176],8.04 ± 0.56
17,CATATTTATAAATATAAACACACAACATTATATGCA [CACACA_site9065],8.88 ± 0.4
18,GCAAAATAAAGAAGCACACAAAAATGAAATATATAT [CACACA_site3651],9.22 ± 0.44
